Test results published in the RNAGym collection of RNA variant scans (doi:10.7554/elife.90254).
Read counts are not given, so values of variants with three or more changes are uncertain.

B1: LINE1-full (parent)
chain: UACGUAGGUGGUUUUCCCCUGAUAGUGCUAAGGGGGCCUGGAAGUUUGGACUGGGCAGAGCUCAACACAGCGUGGCAAAGUGGCUGUGGCUAGACUGCCUCUCUGGAUUCCUCGUCACUCAGCAGGGCAUCUCUGAGAGAAAUGCC

Variants of: B1
Test: self-cleavage, relative activity (ratio to wild type); higher = more cleavage; in vitro, sequencing; the parent is a self-cleaving ribozyme

| Variant | self-cleavage |
| --- | --- |
| U39C A142G U143A | 1.18 |
| A42U A43G U100C A140G | 0.59 |
| U39C U46C U85C U102C | 1.31 |
| U39A U45A U102C G114A A124G | 1.05 |
| U39C U62C U96G | 0 |
| A42G U46A U115C | 1.51 |
| U39C A65U A77G | 0.25 |
| G41U A77G A129U | 0.38 |
| G40A A43G A65G A138G | 0.09 |
| A42G U62A A69U U73A | 0.02 |
| G41A A57U A94G | 0.06 |
| U39C U62A A79G | 0.09 |
| U39C A69U U91C G105A | 0.04 |
| U39A G93A A141G | 0.03 |
| U39C U45C G55A A138G A142G | 0.47 |
| U39A A50U U112C | 0.39 |
| A42G U104C A117G | 2.76 |
| U39C U62C U112C | 0 |
| A42G A77U U85C C123U | 0.11 |
| U39A U85A U134A | 0.08 |
| G40A A67U U96A A140G | 0.02 |

| Variant | self-cleavage |
| --- | --- |
| U39C G48A U109C | 0.66 |
| A42G A124U A141G | 0.86 |
| U39C A57U A59U U91A | 0.05 |
| G40U A79G A121G | 0.86 |
| A42U G54A U112C | 0.08 |
| U39C U73G U81A G93U | 0.03 |
| A42G G53A U87A A124G | 0.12 |
| U39A U102C A117G U130C A142G | 1.97 |
| A42G A69G A77G | 0.92 |
| U39C U45C A69C A78G | 0 |
| U39C U85A U96C | 0.09 |
| U39A A69G A124U A142G | 1.09 |
| A42G A67U U134C | 0.35 |
| U39C U45C A141G | 1.23 |
| A42U A50G C66A A77U | 0 |
| U39C U45G G72A G106A A117G | 1.7 |
| U39C U96A U104C U119A | 0 |
| A42G A117G A124U | 2.83 |
| A42G U73C U134G | 0 |
| U39C A43G A69G U132A | 0 |
| A42U A50G A57G G122U | 0.19 |

| Variant | self-cleavage |
| --- | --- |
| A42G A77G A142G | 2.34 |
| A42G A57G A67G U115A | 0 |
| G41A A50G C63U C84U U115C | 0.15 |
| A42G A57U A67U G135U | 0.03 |
| A42G U47C A64U A107G | 0.81 |
| G41A U46C U52C A138G | 1.14 |
| A42G U52G U134C | 1.72 |
| U39G U47C U96C A138G | 0 |
| U39A U73A U115C C145G | 1.84 |
| A42G U112C U143G | 1.11 |
| A42G U52C G135A | 1.16 |
| U39C U46C G88A | 0.1 |
| A42G U47C U115A | 0.88 |
| U39A G41A A43G | 1.06 |
| U39A C63A U100C A142G | 0.07 |
| G41A G75A A140G | 1.42 |
| A42U A64G A117U | 0.11 |
| U39A U62C C76A A77G | 0.02 |
| A42G G53A A57G U112C | 0.45 |
| U39A U73C C90U | 0.06 |
| U39A C90U U91C U108C | 0 |

| Variant | self-cleavage |
| --- | --- |
| A42U C98U U100C | 1.21 |
| U39A U62A A138U A140G | 0.03 |
| G41A A50G U119A | 0.91 |
| A42G A59G A124G | 0.05 |
| A42G A50G A129G | 0 |
| U39C A92U A107G | 0 |
| U39C A79U U87C A142G U143C | 0 |
| U39A G86A U143A | 0.09 |
| A42G A50G A67G A78G | 0 |
| U39A U112A U143A | 1.39 |
| A42U G72A C98G A136U A142G | 0.04 |
| U39C C120U A142G | 1.48 |
| U39A U62C A77G A142G | 0.08 |
| U39A A69G G127U U132C | 0.34 |
| U39C A67G C101A | 0.14 |
| U39A U46C U81C U130C | 1.62 |
| A42G C103A U109C | 1.83 |
| A42G C76U U96A A129U G144A | 0.06 |
| U39A U96A U109A G122A | 0.03 |
| A42G U62C A129G A140U | 0.24 |
